Measurements published in PMC4336329 (PLoS ONE, 2015).
Hit rate of the full screen: of about 310,000 compounds, about 14,000 (4.5%) showed an effect of 50% or more. The effect is printed as a negative number. The list shows a part of the results.

Each compound was assayed against human ether-à-go-go-related gene (hERG) potassium channel (human, UniProt Q12809) (assay: primary screen, population patch clamp on CHO cells stably expressing hERG).
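Note: peak tail current of the secondary pulse compared with the same well before compound.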

Chain of human ether-à-go-go-related gene (hERG) potassium channel (Q12809 whole entry, looked up): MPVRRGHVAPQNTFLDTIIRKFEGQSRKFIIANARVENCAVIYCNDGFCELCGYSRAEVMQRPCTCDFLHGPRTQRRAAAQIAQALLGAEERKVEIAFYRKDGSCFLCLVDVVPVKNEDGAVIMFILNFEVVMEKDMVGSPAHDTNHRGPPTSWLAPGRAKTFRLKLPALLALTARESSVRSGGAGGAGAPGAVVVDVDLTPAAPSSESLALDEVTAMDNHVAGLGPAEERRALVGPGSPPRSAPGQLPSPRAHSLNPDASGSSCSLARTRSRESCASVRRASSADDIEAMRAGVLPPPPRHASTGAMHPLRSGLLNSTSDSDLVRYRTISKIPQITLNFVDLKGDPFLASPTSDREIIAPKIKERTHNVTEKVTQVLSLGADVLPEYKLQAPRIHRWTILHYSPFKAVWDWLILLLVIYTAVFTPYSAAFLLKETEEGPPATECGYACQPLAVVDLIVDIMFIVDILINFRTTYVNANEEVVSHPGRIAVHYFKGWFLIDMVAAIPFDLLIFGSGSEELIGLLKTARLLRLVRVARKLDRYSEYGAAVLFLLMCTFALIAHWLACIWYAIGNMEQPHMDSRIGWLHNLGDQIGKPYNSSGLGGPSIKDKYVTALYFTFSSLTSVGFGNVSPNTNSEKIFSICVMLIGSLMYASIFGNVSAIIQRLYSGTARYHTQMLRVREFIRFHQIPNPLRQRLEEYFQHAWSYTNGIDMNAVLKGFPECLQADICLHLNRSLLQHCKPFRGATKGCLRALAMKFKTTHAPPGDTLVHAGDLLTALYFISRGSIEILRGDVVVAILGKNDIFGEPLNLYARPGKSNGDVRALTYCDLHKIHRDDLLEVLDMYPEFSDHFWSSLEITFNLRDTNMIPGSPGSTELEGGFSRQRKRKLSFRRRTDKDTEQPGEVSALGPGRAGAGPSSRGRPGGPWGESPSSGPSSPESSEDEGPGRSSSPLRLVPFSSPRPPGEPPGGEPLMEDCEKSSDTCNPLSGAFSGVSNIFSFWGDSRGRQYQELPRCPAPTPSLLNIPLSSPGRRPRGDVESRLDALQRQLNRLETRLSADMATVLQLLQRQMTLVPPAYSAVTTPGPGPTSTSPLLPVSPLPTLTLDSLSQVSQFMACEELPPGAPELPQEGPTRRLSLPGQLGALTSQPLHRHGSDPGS

| SMILES | hERG current change (%, negative = inhibition) at 10uM |
| --- | --- |
| O=C(NCCc1ccccc1)C(c1cccs1)N(C(=O)c1csnn1)C1CC1 (centres unmarked) | -41% |
| COc1ccc(CCNC(=O)c2cc(COc3c(C)cccc3C)on2)c(OC)c1 | 8.55% |
| CC1=C(N2CCN(c3ncccn3)CC2)CCC1=O | 3.43% |
| COc1cc(O)c(C(C)=O)c(CC(=O)O)c1 | -0.401% |
| N#CC1(NC(=O)CN2C(=O)NC3(CCCCCC3)C2=O)CCCCC1 | -0.951% |
| CCNC(=S)NNC(=O)C(c1ccccc1)c1ccccc1 | 3.38% |
| COc1cccc(CNC(=O)CN2C(=O)c3ccccc3S2(=O)=O)c1 | 6.27% |
| CCN(CC(=O)Nc1c(F)cccc1F)C(=O)/C=C/c1ccc(OCC#N)c(OC)c1 | -7.55% |
| CCOc1ccccc1N1CCN(C(=O)c2cc[n+]([O-])cc2)CC1 | 8.46% |
| Cc1no[n+]([O-])c1COc1ccccc1/C=N/n1nnnc1N | 6.18% |
| CCOc1cc(C(=O)NCC2CCCO2)cc(OCC)c1OCC (centres unmarked) | -1.4% |
| O=C(CSc1nnc(-c2cccnc2)s1)Nc1ccccc1 | 8.59% |
| CCC(OC(=O)C(NC(=O)c1ccccc1)c1ccccc1)C(=O)Nc1cc(C)on1 (centres unmarked) | 2.96% |
| Cc1cc(OC(=O)c2ccco2)c2c3c(c(=O)oc2c1)CCCC3 | -5.53% |
| Cc1ccc(C(=O)COc2cc(C)nc3nncn23)cc1 | 11.3% |
| COc1ccc(OCC(=O)OCC(=O)Nc2ccc(S(=O)(=O)N3CCCCC3)cc2)cc1 | 2.69% |
| Cc1cc(NC(=O)c2ccccc2)n(C(C)(C)C)n1 | 19.4% |
| O=C(c1ccc(N2CCCC2=O)cc1)N1CCN(c2ccccc2)CC1 | 13.3% |
| COCCSc1nnc(NC(=O)c2cc(OC)c(OC)cc2[N+](=O)[O-])s1 | 18.6% |
| COc1cccc(C2C(=O)N(C3CCCCC3)CC(=O)N2Cc2ccc(F)cc2)c1 (centres unmarked) | -43.8% |
| CN(c1ccccc1)c1ccc(/C=N/N2CCOCC2)cc1 | 1.86% |
| CCOc1ccc(-c2ccc(NS(=O)(=O)c3cc([N+](=O)[O-])c(C)c([N+](=O)[O-])c3)cc2)nn1 | 0.623% |
| COC(=O)[C@@H](NC(=O)O[C@@H]1C(=O)c2cc(Br)ccc2O[C@H]1c1cccc(OC)c1)C(C)C | -2.02% |

| SMILES | hERG current change (%, negative = inhibition) at 10uM |
| --- | --- |
| O=C(OCC(=O)N1CCC(Cc2ccccc2)CC1)c1ccc[nH]c1=O | -4.41% |
| COc1ccc2oc(=O)c(N3C(=O)c4ccccc4C3=O)cc2c1 | 30.8% |
| O=c1[nH]c(C(F)(F)F)nc2ccc3ccccc3c12 | 17.4% |
| COc1ccc(C2CCCN2C(=O)Nc2ccc(F)cc2)cc1OC (centres unmarked) | -4.22% |
| CC(CC(=O)Nc1cc(C(F)(F)F)ccc1Cl)c1ccccc1 (centres unmarked) | 5.25% |
| Cc1cc(N)n(-c2ccccc2)n1 | 12.9% |
| O=C(CSc1nnc(Cc2cccs2)n1C1CC1)NC1CCS(=O)(=O)C1 (centres unmarked) | -1.17% |
| Cc1nc(NC(=O)c2ccccc2)sc1Cc1ccc2c(c1)OCO2 | -5.17% |
| COc1ccc(-n2c(C)nc3cc(C(=O)NCc4ccc5c(c4)OCO5)ccc32)cc1 | -16.8% |
| CC1CCCCC12NC(=O)N(CC(=O)Nc1sc3c(c1C(N)=O)CCC3)C2=O (centres unmarked) | -3.89% |
| CS(=O)(=O)c1ccc(Cl)c(NC(=O)COc2ccc3c(c2)CCC3)c1 | -4.02% |
| COc1ccc(C(C)(C)C)cc1NS(=O)(=O)c1cccc2cccnc12 | 18.3% |
| Cc1ccc(C)c(CSc2nnc([C@@H](N)C(C)C)o2)c1.Cl | 6.63% |
| Cc1cccc(NC(=O)c2nc[nH]c2C(=O)N[C@@H](CCCCNC(=O)OC(C)(C)C)C(=O)OC(C)(C)C)c1 | 12.5% |
| CCN(CC(=O)Nc1c(F)cccc1F)C(=O)C1CCN(S(=O)(=O)c2ccc(F)cc2)CC1 | -14% |
| OCc1csc(=Nc2ccccc2)n1-c1ccccc1 | 0.29% |
| CCCCn1c(N)c(N(CCOC)C(=O)CCc2ccc(OC)cc2)c(=O)[nH]c1=O | 12.4% |
| Cc1ccc(C(=O)CN2C(=O)C(C)Oc3ccccc32)cc1 (centres unmarked) | -1.24% |
| O=C(NCCS(=O)(=O)NCc1ccccc1Cl)c1ccccc1 | -14.5% |
| O=C(CN1CCOCC1)Nc1nc2cc([N+](=O)[O-])ccc2s1 | -32.3% |
| COc1cc(NS(=O)(=O)c2ccc(NC(=O)NC3CCCCC3)cc2)nc(OC)n1 | 6.27% |
| C=CCNC(=O)COC(=O)c1ccc(Cl)c(S(N)(=O)=O)c1 | 9.88% |
| CN(CC(=O)NCc1ccccn1)S(=O)(=O)c1ccccc1 | 5.77% |

| SMILES | hERG current change (%, negative = inhibition) at 10uM |
| --- | --- |
| CC(OC(=O)COc1ccccc1[N+](=O)[O-])C(=O)Nc1ccc(N2CCOCC2)cc1 (centres unmarked) | -3.06% |
| COc1cc(CNC2CCCC2)cc(Cl)c1OCc1ccc(F)cc1.Cl | -37.8% |
| Cc1nc(NCc2ccco2)[nH]c(=O)c1CCC(C)C | -1.09% |
| CN(Cc1ccccc1)C(=O)CN1C(=O)NC2(CCCC2)C1=O | -12.6% |
| CCOC(=O)C1=NN(c2ccccc2C)C2=NC(C)=C(C(=O)OC)C(c3cccs3)N12 (centres unmarked) | -16.3% |
| CCCC(c1nnnn1Cc1ccccc1)N1CCC(C(N)=O)CC1.Cl (centres unmarked) | -3.44% |
| COc1cccc(C2NC(=S)NC(C)=C2C(=O)c2ccccc2)c1OC (centres unmarked) | 7.62% |
| CCOCCCN(Cc1ccco1)S(=O)(=O)c1csc(C(N)=O)c1 | 20.1% |
| O=C(NCc1ccco1)/C(=C/c1cccc(C(F)(F)F)c1)c1nc2ccccc2[nH]1 | 15.4% |
| O=S(=O)(NCC(c1cccnc1)N1CCN(c2ccccc2F)CC1)c1cccs1 (centres unmarked) | -60.5% |
| c1ccc2nc(OCCN3CC3)ccc2c1 | 0.471% |
| Cc1ccc(OS(=O)(=O)c2ccc(-c3csc(C)n3)s2)c(C)c1 | 15.8% |
| O=CN1CCN(C(=O)c2ccccc2F)CC1 | 17.3% |
| O=C(NNS(=O)(=O)c1ccc(F)c(Cl)c1)c1cccc(S(=O)(=O)N2CCOCC2)c1 | 36.7% |
| O=C(NCc1ccccc1)c1ccc2c(=O)n(CC3CCCO3)c(=S)[nH]c2c1 (centres unmarked) | -2.39% |
| COc1cc(OC)c(S(=O)(=O)N2CCCCC2)cc1S(=O)(=O)N1CCCCC1 | -17.6% |
| COc1cc(Cn2c(N)c(C(=O)NCc3ccco3)c3nc4ccccc4nc32)cc(OC)c1OC | -11.8% |
| COCC(=O)Nc1ccc(Br)c(C)c1 | 1.85% |
| COc1cc(NC(=O)CN2C(=O)NC(CC(C)C)C2=O)cc(OC)c1OC (centres unmarked) | 7.49% |
| O=C(C1CC1c1ccccc1)N1CCOCC1 (centres unmarked) | 28.3% |
| CCOc1cc(/C=N/N2CCN(Cc3ccccc3)CC2)ccc1O | -8.42% |
| COCCN=C1N[C@@H](c2ccccc2)C(C(=O)OC)=C(C)N1Cc1ccccc1 | -16.8% |
| Nc1nnnn1CC(=O)OCc1cccc(Br)c1 | -13.8% |

| SMILES | hERG current change (%, negative = inhibition) at 10uM |
| --- | --- |
| CN1CCN(c2nc(-c3ccccc3O)nc3ccccc23)CC1 | 9.47% |
| Cc1ccc(S(=O)(=O)N(C)C)cc1NC(=O)CSc1nnc(C2CC2)n1C1CC1 | -17% |
| Cc1ccc(NC(=O)COC(=O)CCC(=O)c2cccs2)cc1 | -6.94% |
| O=C(c1ccc(Br)cc1)c1cn[nH]c1-c1ccccc1O | 5.85% |
| CCOc1ccc(NC(=O)N(c2ccccc2)c2ccccc2)cc1 | 7.25% |
| C(=N\n1cnnc1)/c1ccccc1OCCOc1ccccc1 | -37.5% |
| CCOc1ccc(N2CC(C(=O)N3CCCCCC3)CC2=O)cc1 (centres unmarked) | -7.34% |
| COc1c2ccc(C(=O)NCc3cc(C(F)(F)F)cc(C(F)(F)F)c3)cc2nn1C | 14.7% |
| COc1ccc(CNS(=O)(=O)c2ccc(-c3ccc(=O)[nH]n3)o2)cc1 | 9.29% |
| CC(=O)Nc1nc2c(C)c(Cl)ccc2s1 | 14% |
| CCn1nc(-c2ccccc2)c2nc3ccccc3nc21 | 6.47% |
| COC(=O)c1ccc(CN2CCC(n3nccc3NC(=O)C3CCCC3)CC2)cc1 | -67.7% |
| COc1ccc(CCNC(=O)COc2cc(=O)n(C)c3ccccc23)cc1OC | 5.75% |
| O=C(c1ccc(Cl)cc1)C1CCCN(C(=O)/C=C/c2ccccn2)C1 (centres unmarked) | -51.9% |
| CCC(C)C(=O)Nc1nnc(SCC(=O)N2C(C)CCCC2C)s1 (centres unmarked) | -1.37% |
| COC(=O)c1cccc(NC(=O)c2cnn(C)c2)c1 | 15.9% |
| Nc1ccc(C(=O)NCCCCCCNC(=O)c2ccc(N)cc2)cc1 | 12.3% |
| Cc1ccc(N(C(=O)c2ccc(S(=O)(=O)N3CCCC3)cc2)C2C=CS(=O)(=O)C2)cc1 (centres unmarked) | -32.9% |
| C=CCn1c(COc2ccc(OC)cc2)nc2ccccc21 | -79.8% |
| COc1ccc(/C=C(\C#N)C(=O)Nc2cc(S(=O)(=O)N3CCCCC3)ccc2N2CCCCC2)cc1 | 6.92% |
